# Laboratory results as given in PubChem BioAssay AID588795 (National Center for Advancing Translational Sciences (NCATS), 2011).
# Hit rate of the full screen: of about 390,000 compounds, about 1,400 (0.36%) were called active. The shares of active, inactive and inconclusive entries below differ from those in the screen. Calls come from the whole dose curve; as a rule, active = well fitted inhibition curve with a large enough effect; inconclusive = small, poorly fitted or top-dose-only effect; inactive = no such curve, though single readings can be large or run the other way. A potency beside an inconclusive call is a rough fit, not a confirmed value.
# Biological target: Flap endonuclease 1 (Homo sapiens) (UniProt P39748)
# Experiment: qHTS Assay for the Inhibitors of Human Flap endonuclease 1 (FEN1). Note: nearly all actives have a fitted effect of over 65% in size.
# Details: Recombinant FEN1 flap cleavage, fluorescence, 15 min; series mostly up to 114 µM; activity change, negative = inhibition: at the top concentration
# Procedure, shortened: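 Nuclease activity of 10 nM FEN1 was measured after 15 min of room-temperature exposure to titrated compounds, by adding 50 nM flap substrate and reading plates at 0 and 15 min.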
# % is set by controls: 0 for no effect and ±100 for the full control effect; potency is the fitted concentration of half-maximal effect; tags give direction and shape of the fitted curve.
# Sequence of UniProt P39748 (P39748 whole entry, looked up): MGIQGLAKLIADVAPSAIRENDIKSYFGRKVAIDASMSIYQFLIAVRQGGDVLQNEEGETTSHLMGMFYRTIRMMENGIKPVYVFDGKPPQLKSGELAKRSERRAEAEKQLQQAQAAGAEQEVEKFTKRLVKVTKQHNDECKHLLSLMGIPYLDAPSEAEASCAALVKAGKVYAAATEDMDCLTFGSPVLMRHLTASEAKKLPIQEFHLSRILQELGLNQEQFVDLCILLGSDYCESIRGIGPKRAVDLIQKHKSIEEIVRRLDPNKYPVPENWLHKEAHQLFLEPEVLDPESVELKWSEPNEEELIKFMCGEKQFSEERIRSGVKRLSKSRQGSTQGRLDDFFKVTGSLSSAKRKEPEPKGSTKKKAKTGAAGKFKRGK
Compound,"activity change, negative = inhibition",Potency
Cc1cccc(NC(=O)C2CCN(c3nc4ccccc4[nH]3)CC2)c1C,inactive: -8.86%,
Cc1c2ccccc2nc2c(F)c(NCCO)c(F)c(F)c12,,"inconclusive: 63.1 µM [inhibitor, partial curve, poor fit]"
CCOCCCN1C(=O)c2[nH]nc(-c3ccccc3O)c2C1c1ccc(CC)cc1 (stereo unspecified),,"inconclusive: 89.1 µM [inhibitor, partial curve, poor fit]"
Cc1ccnc2nc(C(=O)Nc3nc(-c4ccccn4)cs3)nn12,,"inconclusive: 89.1 µM [inhibitor, partial curve, poor fit]"
c1ccc(-c2csc3nnc(SCc4ccc5c(c4)OCO5)n23)cc1,,"inconclusive: 63.1 µM [inhibitor, partial curve, poor fit]"
O=C(CCC(=O)c1cccs1)NNC(=O)c1ccccc1O,inactive: -3.68%,
COc1ccc(C2=NCC(CSc3nnnn3C)S2)cc1 (stereo unspecified),,"inconclusive: 100 µM [inhibitor, partial curve, poor fit]"
Cc1ccc2nc(CSc3nc(C)ccc3C#N)[nH]c2c1,,"inconclusive: 44.7 µM [inhibitor, partial curve, poor fit]"
Oc1c(CNc2ccccc2)cc(COCc2ccccc2)c2cccnc12,,"inconclusive: 79.4 µM [inhibitor, partial curve]"
CCCC[C@H]1C2=C3[C@@H](CC(C(=O)OC)=C[C@@H](C(=O)OC)[C@H]3C(C)(C)C2=O)n2c(=O)n(-c3ccccc3)c(=O)n21,,"inconclusive: 100 µM [inhibitor, single point]"
CN(C)CCN1C(=O)c2cccc3cc([N+](=O)[O-])cc(c23)C1=O,,active: 20 µM
Cc1cc(=O)[nH]c(N2CCCNCC2)n1,inactive: -18.2%,
Oc1ccc(N=Cc2sc3ccccc3c2Cl)cc1,,"inconclusive: 79.4 µM [inhibitor, single point]"
COc1ccc(CN(CC(O)COc2cccc3[nH]cc(C)c23)C(C)(C)C)cc1 (stereo unspecified),,"inconclusive: 79.4 µM [inhibitor, partial curve, poor fit]"
COc1ccc(Oc2ccc(/C=C/C(=O)c3cccc(OC)c3)cc2[N+](=O)[O-])cc1,,"inconclusive: 100 µM [inhibitor, partial curve, poor fit]"
COc1ccc2c(c1)C(=NNc1ccc(C(=O)O)cc1)c1cc(OC)ccc1-2,,"inconclusive: 39.8 µM [inhibitor, full curve]"
COc1ccc2c(c1)c(=O)oc1cc(OCC(=O)N3CCC(C)CC3)ccc12,,"inconclusive: 79.4 µM [inhibitor, partial curve, poor fit]"
O=S(=O)(Nc1cccc2cccnc12)c1cccs1,inactive: -13.6%,
CN1CCN(C(c2ccccc2)c2ccc(Cl)cc2)CC1 (stereo unspecified),inactive: 11.8%,
CC1CCCCC1NC(=O)COC(=O)c1c2c(nc3ccccc13)/C(=C\c1ccco1)CC2 (stereo unspecified),,active: 50.1 µM
COc1ccc(OC)c2[nH]c(=O)c(CCNC(=O)Cc3cccs3)cc12,,"inconclusive: 100 µM [inhibitor, single point]"

Compound,"activity change, negative = inhibition",Potency
Cc1cccn2c(=O)c3cc(C(=O)NCc4ccco4)c(=N)n(CCc4ccccc4)c3nc12,inactive: -5.69%,
Cc1cc(C)cc(-n2c(C)nc3cc(C(=O)NCc4ccc(F)cc4)ccc32)c1,inactive: -3.44%,
CCN(CCCNC(=O)c1cc2cc3ccc(OC)cc3nc2s1)c1cccc(C)c1,,"inconclusive: 89.1 µM [inhibitor, partial curve, poor fit]"
C[C@H](C(=O)OCO/N=[N+](\[O-])N1CCCC1)c1cccc2ccccc12,,"inconclusive: 25.1 µM [inhibitor, single point]"
CCC(C)NC(=O)c1ccc2c(c1)N(Cc1ccccc1F)C(=O)c1ccccc1S2=O (stereo unspecified),,"inconclusive: 89.1 µM [inhibitor, single point]"
O=C(N/N=C/c1ccc(O)c2ccccc12)c1cccnc1,,"inconclusive: 89.1 µM [inhibitor, partial curve, poor fit]"
Cc1ccc(CNC(=O)c2sc3nc(-c4ccccc4)cn3c2C)cc1,,active: 89.1 µM
O=C(CCS(=O)(=O)c1cc(Br)cc2c1N(C(=O)C1CC1)CC2)Nc1ccc(F)cc1,inactive: -2.51%,
O=C(N/N=C/c1cc(Cl)ccc1O)c1ccc(Br)cc1,,"inconclusive: 89.1 µM [inhibitor, partial curve, poor fit]"
COc1ccc(-c2cc(OC(=O)c3ccccc3)c3c(C)oc(C)c3c(=O)c2)cc1OC,,"inconclusive: 25.1 µM [inhibitor, partial curve, poor fit]"
CCn1cc2nc(SCC(=O)Nc3ccc(F)cc3F)n(Cc3ccccc3)c(=O)c2n1,inactive: -12.1%,
COC(C(=O)C(O)C(C)O)C1Cc2cc3cc(OC4CC(OC5CC(O)C(O)C(C)O5)C(O)C(C)O4)c(C)c(O)c3c(O)c2C(=O)C1OC1CC(OC2CC(OC3CC(C)(O)C(O)C(C)O3)C(O)C(C)O2)C(O)C(C)O1 (stereo unspecified),,"inconclusive: 11.2 µM [inhibitor, full curve]"
COc1ccc2sc(/C=C/c3ccccc3O)[n+](C)c2c1,,active: 39.8 µM
O=S(=O)(Nc1nccs1)c1ccc(Nc2nnc(-c3ccccc3)c3ccccc23)cc1,,active: 89.1 µM
Cc1ccc(CN(Cc2cccn2-c2nnc(N3CCCC3=O)s2)C(=O)Nc2ccccc2C(F)(F)F)cc1,,"inconclusive: 79.4 µM [inhibitor, partial curve, poor fit]"
COc1cc(C2NCC(c3ccc(Cl)cc3Cl)c3c2[nH]c2ccccc32)cc(OC)c1OC (stereo unspecified),inactive: -3.19%,
CSc1ccccc1OCc1cc(C(=O)N(C)Cc2ccc(C)o2)no1,,"inconclusive: 89.1 µM [inhibitor, partial curve, poor fit]"
CCC1(c2ccccc2)SCC(c2ccccc2)=NC1=O (stereo unspecified),,"inconclusive: 89.1 µM [inhibitor, partial curve, poor fit]"
Cc1ccc2c(/C=C/c3c[nH]c4ccccc34)ccnc2c1C,,"inconclusive: 28.2 µM [inhibitor, partial curve, poor fit]"
CC1=NN(c2ccc(C)c(C)c2)C(=O)C1C(c1cccc(O)c1)C1C(=O)N(c2ccc(C)c(C)c2)N=C1C (stereo unspecified),,"inconclusive: 89.1 µM [inhibitor, partial curve, poor fit]"
CCOc1ccc(N(C)c2ccc(/C=C3/SC(=S)NC3=O)cc2)cc1,,"inconclusive: 39.8 µM [inhibitor, partial curve, poor fit]"

Compound,"activity change, negative = inhibition",Potency
Cn1nnc2c(N3CCN(c4ccccc4)CC3)ncnc21,inactive: -13.6%,
Cc1ccc(C(=O)Nc2ccc(S(=O)(=O)O)c3cc(S(=O)(=O)O)cc(S(=O)(=O)O)c23)cc1NC(=O)c1cccc(NC(=O)Nc2cccc(C(=O)Nc3cc(C(=O)Nc4ccc(S(=O)(=O)O)c5cc(S(=O)(=O)O)cc(S(=O)(=O)O)c45)ccc3C)c2)c1,,active: 1.26 µM
Cc1ccc2c(c1)c(=O)c1c3n2CCN(C(=O)CCl)C3CC1 (stereo unspecified),,"inconclusive: 50.1 µM [inhibitor, partial curve]"
O=C1/C(=C\c2ccc([N+](=O)[O-])cc2)CS(=O)(=O)C/C1=C/c1ccc([N+](=O)[O-])cc1,,"inconclusive: 79.4 µM [inhibitor, partial curve, poor fit]"
CC(C)(C)c1ccc(C(=O)NC(=S)NNC(=O)c2cccs2)cc1,inactive: -11%,
COc1ccc(/C=N/NC(=O)c2ccc(N)cc2)cc1Cn1cc([N+](=O)[O-])cn1,,"inconclusive: 89.1 µM [inhibitor, single point]"
CCc1ccc(NC(=O)COC(=O)c2ccc(Cl)c(S(=O)(=O)N3CCCCCC3)c2)cc1,inactive: -9.68%,
CCCc1nc(SC2CCCC2)c2c(=O)n(C)c(=O)n(C)c2n1,,"inconclusive: 25.1 µM [inhibitor, partial curve, poor fit]"
CCC1CN(C(=O)NCc2ccc(C)cc2)c2cc(Cl)ccc2O1 (stereo unspecified),,"inconclusive: 28.2 µM [inhibitor, partial curve, poor fit]"
Cn1cccc1-c1nc2ccc(NC(=O)c3cccs3)cc2[nH]1,,"inconclusive: 79.4 µM [inhibitor, partial curve, poor fit]"
Cc1ccc(C(=O)Nc2nnc(CC(=O)N/N=C/c3ccc(O)c(O)c3)s2)cc1,,active: 11.2 µM
Cc1ccc(CSCCNC(=O)/C=C/c2ccccc2Cl)cc1,,"inconclusive: 89.1 µM [inhibitor, partial curve, poor fit]"
Cn1c(SCC(=O)N/N=C/C=C/c2ccco2)nc2ccccc21,,"inconclusive: 100 µM [inhibitor, single point]"
Cn1cc(C2=C(c3ccc(Cl)cc3Cl)C(=O)NC2=O)c2ccccc21,,"inconclusive: 31.6 µM [inhibitor, partial curve, poor fit]"
CN(C)S(=O)(=O)c1cccc(NC(=O)COC(=O)c2ccc([N+](=O)[O-])o2)c1,,active: 50.1 µM
O=[S+]([O-])([O-])c1ccc2c(c1)cc([S+](=O)([O-])[O-])c1nn(-c3ccc(/C=C/c4ccc(-n5nc6c([S+](=O)([O-])[O-])cc7cc([S+](=O)([O-])[O-])ccc7c6n5)cc4[S+](=O)([O-])[O-])c([S+](=O)([O-])[O-])c3)nc12,,"inconclusive: 11.2 µM [inhibitor, partial curve, poor fit]"
O=C(Nc1sc2c(c1C(=O)O)CCCC2)c1cccc(Cl)c1,,"inconclusive: 79.4 µM [inhibitor, partial curve, poor fit]"
CCc1cc(=O)oc2cc(C)c(CN3CCCC3)c(O)c12,,active: 25.1 µM
COCCCNC(=O)/C(C#N)=C/c1c(N2CCN(c3ccccc3)CC2)nc2c(C)cccn2c1=O,,"inconclusive: 44.7 µM [inhibitor, partial curve, poor fit]"
